Measurements: PubChem BioAssay AID1347073 (National Center for Advancing Translational Sciences (NCATS), 2019)
About 200 (0.44%) of roughly 45,000 compounds were called active. Roughly 7% stayed inconclusive and do not appear here. Calls follow the shape of the dose curve; as a rule, active = well fitted activation curve with a large enough effect; inconclusive = small, poorly fitted or top-dose-only effect; inactive = no such curve, though single readings can be large or run the other way. This is one part of the list.

Test: qHTS of TDP-43 Inhibitors: NCGC Sytravon Library Screen; also: nearly all actives have a fitted effect of over 55% in size; as to growth rescue (activation): 0% is about no effect
Conditions: yeast TDP-43 toxicity rescue, BacTiter-Glo growth, 24 h; series mostly up to 46.1 µM; growth rescue (activation): at the top concentration
In short: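 TDP-43-expressing yeast, pregrown in raffinose, seeded at OD600 0.02 in galactose medium with compound for 24 hr at 30 deg C. Growth read by BacTiter-Glo luminescence, so rescue of toxicity appears as activation.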
Potency is read from the fitted curve at half-maximal effect.

SMILES	growth rescue (activation)	Potency
O=C(C1CC1)N1CCc2cc(Br)c(S(=O)(=O)N3CCCCCC3)cc21	inactive: -2.24%	
Cc1ccc(C(=O)COC(=O)CN2C(=O)C3C4CC(C(Br)C4Br)C3C2=O)cc1 (stereo not drawn)	inactive: -9.78%	
CC1CCc2nc3ccc(S(=O)(=O)N4CCC(C(=O)NCc5ccccc5Cl)CC4)cc3c(C(=O)O)c2C1 (stereo not drawn)	inactive: 5.5%	
Cn1c(=O)c2c(ncn2CC(=O)OCCCC(=O)c2ccc(Br)cc2)n(C)c1=O	inactive: 9.93%	
O=C(NC(C(=O)N/N=C/c1ccccc1)c1n[nH]c(=O)c2ccccc12)c1ccccc1 (stereo not drawn)	inactive: 28.6%	
COc1ccc(NC(=O)c2cc(S(=O)(=O)N(C)C)ccc2N2CCCC2)cc1Cl	inactive: 19%	
Cc1cc(CNCc2cn(C)nc2-c2ccc(Oc3ccccc3)cc2)on1	inactive: -1.25%	
CC(C)N1C(=O)CCN(C=O)c2ccccc21	inactive: -4.86%	
CCNC(=S)N1CCN(c2cccc(C(F)(F)F)c2)CC1	inactive: 18.4%	
CCc1ccc(S(=O)(=O)/N=C2\C=C(Nc3ccc(O)cc3)C(=O)c3ccccc32)cc1	inactive: -1.93%	
Cc1ccc(C(=O)N/N=C\c2ccc([N+](=O)[O-])o2)cn1	inactive: 30.8%	
COc1cccc(COC(=O)c2nn(-c3ccccc3)nc2N)c1	inactive: -9.96%	
CCCNCc1nnc(-c2ccccc2Cl)o1	inactive: -6.43%	
COc1ccc(CNS(=O)(=O)c2ccc(-n3cnnn3)c(C)c2)cc1	inactive: 10.1%	
S=C(NC1CCCCC1)N1CCN(C/C=C/c2ccccc2)CC1	inactive: -1.42%	
O/N=C/c1ccccc1Oc1ccc(Cl)cc1		active: 17.8 µM
O=C(NNS(=O)(=O)c1ccc(Cl)cc1)c1cc(-c2ccccc2)n[nH]1	inactive: -3.87%	
N#C/C(=C\c1ccccc1)C(=O)Nc1nncs1	inactive: -22.4%	
O=C(CCCn1cnc([N+](=O)[O-])n1)Nc1cccc(O)c1	inactive: -23.1%	
O=C(O)c1ccccc1SCC(=O)N1CCOCC1	inactive: -3.58%	
COc1ccc(NC(=O)NCc2cccn2C)c(OC)c1	inactive: -8.47%	
CCc1nnc(NC(=O)CSc2nnc3nc(C)cc(C)n23)s1	inactive: -4.69%	
CCc1ccc(NC(=O)N2CC=C(c3c[nH]c4ccccc34)CC2)cc1	inactive: 17.5%	

SMILES	growth rescue (activation)	Potency
Cc1ccc(C2(C)NC(=O)N(CC(=O)NCc3ccccc3Cl)C2=O)cc1 (stereo not drawn)	inactive: 8.59%	
CC(C)c1ccc(OCC(=O)N2CCN(c3ccccn3)CC2)c(Br)c1	inactive: -4.97%	
Cc1ccc(N(CCC#N)C(=O)CN2C(=O)NC(Cc3ccccc3)C2=O)cc1 (stereo not drawn)	inactive: 10.1%	
Fc1ccccc1Nc1nc2ccccc2o1	inactive: -10.9%	
Cc1cc(C)c2c(n1)nn1c(C)c(CCC(=O)Nc3ccc(C)c(Cl)c3)c(C)nc21	inactive: 5.71%	
CC1(Cc2cc(Cl)ccc2C(F)(F)F)C(=O)Nc2ccc(S(=O)(=O)NC3CCCCC3)cc21 (stereo not drawn)	inactive: -9.51%	
Cc1cccc(NC(=O)CCNS(=O)(=O)c2cccc3nonc23)c1C	inactive: -4.53%	
Cc1cc(-c2nc3ncccc3o2)ccc1NC(=O)c1ccc([N+](=O)[O-])o1	inactive: -6.36%	
COC(=O)c1cc(Br)ccc1NC(=O)CCNC(=O)c1ccco1	inactive: 10%	
COc1ccc(N(C)C(=O)Nc2ccc3nsnc3c2)cc1	inactive: 26.6%	
Cc1cc(N2CCN(C)CC2)nc2ccc(NC(=O)CCC(=O)N3CCN(c4ccc([N+](=O)[O-])cc4)CC3)cc12	inactive: 10.9%	
O=C(O)c1cccc(S(=O)(=O)Nc2ccc(N3CCCCC3)cc2)c1	inactive: 22.2%	
COCCNc1nnc(Cc2ccccc2)c(=O)[nH]1	inactive: -0.0189%	
COc1ccc(OCCOC(=O)c2[nH]c(C)c(C(C)=O)c2C)cc1	inactive: 6.41%	
O=C(CCNC(=O)c1ccccc1)NC1CCCc2ccccc21 (stereo not drawn)	inactive: 23.4%	
CCN(CC)c1ccc(C(=O)OCC(=O)N2CCN(c3ccccc3)CC2)cc1	inactive: 14.8%	
CC(OC(=O)c1nc(-c2ccccc2)n(-c2ccccc2)n1)C(=O)Nc1cc(Cl)cc(Cl)c1 (stereo not drawn)	inactive: 15.4%	
O=C(NCCCn1ccnc1)/C(=C\c1cccnc1)NC(=O)c1ccco1	inactive: 4.34%	
CC1(C(=O)NS(=O)(=O)c2cccc(C#N)c2)CCN1C(=O)CC1CCCCC1 (stereo not drawn)	inactive: 3.11%	
CCc1nnc(NC(=O)CCS(=O)(=O)Cc2ccccc2)s1	inactive: 3.74%	
Cc1cccc(C)c1Nc1nnc(SCc2nc3ccccc3c(=O)[nH]2)s1	inactive: -15.2%	
COc1cc(NS(=O)(=O)c2ccc(NC(=O)CCC(=O)O)cc2)nc(OC)n1	inactive: -26.4%	
O=C(COC(=O)CNC(=O)c1ccccc1F)NCCC1=CCCCC1	inactive: -2.34%	

SMILES	growth rescue (activation)	Potency
CCOC(=O)C1CCCN(c2nc3ccccc3nc2C(C#N)C(=O)OC(C)COC)C1 (stereo not drawn)	inactive: 20.7%	
C=Cc1ccc2c(c1)N(C)C(=C)S2	inactive: 26.4%	
COc1cc(/C=C2/C(=O)NN(c3ccc(F)cc3)C2=O)cc(Cl)c1O	inactive: -1.28%	
NC(=O)c1ccccc1OCc1nnc(-c2ccccc2Br)o1	inactive: -4.87%	
CCN(CC)CCNc1ncnc2c1sc1nc(N3CCOCC3)c3c(c12)CCCC3	inactive: 18.2%	
Cc1ccc(NC(=O)Cc2n[nH]c(=S)n2C)cc1	inactive: 3.61%	
COc1cc(C2c3[nH]c4ccccc4c3CCN2Cc2cn(C)nc2C)ccc1F (stereo not drawn)	inactive: 0.758%	
Cc1ncc(CO)c(/C=N/NC(=S)Nc2ccc(F)cc2)c1O	inactive: 19.6%	
COc1ccc(Nc2ccc(N3C(=O)CCCC3=O)cc2[N+](=O)[O-])c(OC)c1	inactive: 9.51%	
CCN(CC)c1ccc2c(c1)OC(N)=C(C#N)C2c1cccnc1 (stereo not drawn)	inactive: 23.5%	
CC(C)(C)c1ccc(C(=O)NC(=S)Nc2nc3c(s2)CCCC3)cc1	inactive: -14%	
O=C(COC(=O)c1ccco1)NC12CC3CC(CC(C3)C1)C2	inactive: 4.55%	
C=CCN1C(=O)C(CC(=O)Nc2ccccc2F)S/C1=N\c1nccs1 (stereo not drawn)	inactive: -9.87%	
CC(OC(=O)c1ccc([N+](=O)[O-])o1)C(=O)Nc1nc(-c2ccc(F)c(F)c2)cs1 (stereo not drawn)	inactive: -92.6%	
CCN1CCN(S(=O)(=O)c2ccc(C)c([N+](=O)[O-])c2)CC1	inactive: 6.79%	
Cc1ccc(OCCSc2nc3ccccc3n2CCC(=O)O)cc1C	inactive: 1.07%	
COc1cc(/C=N/Nc2cc(C)nc(NS(=O)(=O)c3ccc(C)cc3)n2)ccc1O	inactive: 3.31%	
COCCC(=O)N1CCC(Oc2ccc(C(=O)NCCc3ccccn3)cc2)CC1	inactive: -17.7%	
CCCCNC(=O)C1(C)CCN1C(=O)c1ccc(OC)c(C(F)(F)F)c1 (stereo not drawn)	inactive: 16.7%	
CCCNC(=O)Nc1ccsc1C(=O)OC	inactive: 5.92%	
Cc1nnc(SCC(=O)N2c3ccccc3CC2C)[nH]c1=O (stereo not drawn)	inactive: 10%	
O=C(Cc1c(F)cccc1Cl)OCC(=O)c1ccc[nH]1	inactive: 11.6%	
